# Results taken from publication PMC9911399.
# The other results are listed elsewhere or left out.
# Molecular target: T1, RBFOX1 RRM (Homo sapiens) (UniProt Q9NWB1)
# T1 sequence: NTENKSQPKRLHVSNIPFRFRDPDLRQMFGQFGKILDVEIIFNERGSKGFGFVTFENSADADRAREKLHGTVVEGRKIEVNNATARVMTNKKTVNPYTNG
# Test: EMSA
# Details: HiTS-Eq, 1 nM pool, 10 min; buffer printed only for the single-RNA assays: 10 mM Tris pH 7.5, 150 mM NaCl, 3.4 mM EDTA, 0.001% NP-40, 30 C
row,Sequence,binding signal (KA relative to UGCAUGU)
1,GGGAGACCGGAAUUCAGAUUGUCCUCCCCCGUUAAAUCCCGUCGUAGCCACCA / CAATCTGAATTCCGGTCTCCC / TGGTGGCTACGACGGGATT,0.00554
2,GGGAGACCGGAAUUCAGAUUGUCCCCACCACUUAAAUCCCGUCGUAGCCACCA / CAATCTGAATTCCGGTCTCCC / TGGTGGCTACGACGGGATT,0.0209
3,GGGAGACCGGAAUUCAGAUUGUCCCCCACCAUUAAAUCCCGUCGUAGCCACCA / CAATCTGAATTCCGGTCTCCC / TGGTGGCTACGACGGGATT,0.012
4,GGGAGACCGGAAUUCAGAUUGUCCGGCCCCUUUAAAUCCCGUCGUAGCCACCA / CAATCTGAATTCCGGTCTCCC / TGGTGGCTACGACGGGATT,0.0187
5,GGGAGACCGGAAUUCAGAUUGUCCGGUCCACUUAAAUCCCGUCGUAGCCACCA / CAATCTGAATTCCGGTCTCCC / TGGTGGCTACGACGGGATT,0.00584
6,GGGAGACCGGAAUUCAGAUUGUCCCCCGAAAUUAAAUCCCGUCGUAGCCACCA / CAATCTGAATTCCGGTCTCCC / TGGTGGCTACGACGGGATT,0.00373
7,GGGAGACCGGAAUUCAGAUUGUCCCCCGCACUUAAAUCCCGUCGUAGCCACCA / CAATCTGAATTCCGGTCTCCC / TGGTGGCTACGACGGGATT,0.00744
8,GGGAGACCGGAAUUCAGAUUGUCCCCCAUACUUAAAUCCCGUCGUAGCCACCA / CAATCTGAATTCCGGTCTCCC / TGGTGGCTACGACGGGATT,0.00259
9,GGGAGACCGGAAUUCAGAUUGUCCCUCCCCAUUAAAUCCCGUCGUAGCCACCA / CAATCTGAATTCCGGTCTCCC / TGGTGGCTACGACGGGATT,0.00712
10,GGGAGACCGGAAUUCAGAUUGUCCACCGGUCUUAAAUCCCGUCGUAGCCACCA / CAATCTGAATTCCGGTCTCCC / TGGTGGCTACGACGGGATT,0.00861
11,GGGAGACCGGAAUUCAGAUUGUCCCCCCCUAUUAAAUCCCGUCGUAGCCACCA / CAATCTGAATTCCGGTCTCCC / TGGTGGCTACGACGGGATT,0.00102
12,GGGAGACCGGAAUUCAGAUUGUCCGGCUCCAUUAAAUCCCGUCGUAGCCACCA / CAATCTGAATTCCGGTCTCCC / TGGTGGCTACGACGGGATT,0.00101
13,GGGAGACCGGAAUUCAGAUUGUCCGGUCCCGUUAAAUCCCGUCGUAGCCACCA / CAATCTGAATTCCGGTCTCCC / TGGTGGCTACGACGGGATT,0.00897
14,GGGAGACCGGAAUUCAGAUUGUCCGGUCGACUUAAAUCCCGUCGUAGCCACCA / CAATCTGAATTCCGGTCTCCC / TGGTGGCTACGACGGGATT,0.0159
15,GGGAGACCGGAAUUCAGAUUGUCCCCUCCGGUUAAAUCCCGUCGUAGCCACCA / CAATCTGAATTCCGGTCTCCC / TGGTGGCTACGACGGGATT,0.000591
16,GGGAGACCGGAAUUCAGAUUGUCCUCCCAUCUUAAAUCCCGUCGUAGCCACCA / CAATCTGAATTCCGGTCTCCC / TGGTGGCTACGACGGGATT,0.00712
17,GGGAGACCGGAAUUCAGAUUGUCCGGUCAAAUUAAAUCCCGUCGUAGCCACCA / CAATCTGAATTCCGGTCTCCC / TGGTGGCTACGACGGGATT,0.00184
18,GGGAGACCGGAAUUCAGAUUGUCCCCACCUAUUAAAUCCCGUCGUAGCCACCA / CAATCTGAATTCCGGTCTCCC / TGGTGGCTACGACGGGATT,0.00326
19,GGGAGACCGGAAUUCAGAUUGUCCGGGUCCCUUAAAUCCCGUCGUAGCCACCA / CAATCTGAATTCCGGTCTCCC / TGGTGGCTACGACGGGATT,0.0227
20,GGGAGACCGGAAUUCAGAUUGUCCACUCCCUUUAAAUCCCGUCGUAGCCACCA / CAATCTGAATTCCGGTCTCCC / TGGTGGCTACGACGGGATT,0.00585
21,GGGAGACCGGAAUUCAGAUUGUCCCCCCACCUUAAAUCCCGUCGUAGCCACCA / CAATCTGAATTCCGGTCTCCC / TGGTGGCTACGACGGGATT,0.00966
22,GGGAGACCGGAAUUCAGAUUGUCCCCCUCACUUAAAUCCCGUCGUAGCCACCA / CAATCTGAATTCCGGTCTCCC / TGGTGGCTACGACGGGATT,0.0135
23,GGGAGACCGGAAUUCAGAUUGUCCUCCCUCAUUAAAUCCCGUCGUAGCCACCA / CAATCTGAATTCCGGTCTCCC / TGGTGGCTACGACGGGATT,0.00648
24,GGGAGACCGGAAUUCAGAUUGUCCCCCCACAUUAAAUCCCGUCGUAGCCACCA / CAATCTGAATTCCGGTCTCCC / TGGTGGCTACGACGGGATT,0.0035
